Hit rate of the full screen: of about 310,000 compounds, about 18,000 (5.8%) were called active. Inconclusive means that the source gave no clear call. Such entries were picked first, then a sample of the others. Calls come from the whole dose curve; as a rule, active = well fitted inhibition curve with a large enough effect; inconclusive = small, poorly fitted or top-dose-only effect, or another doubt; inactive = no such curve, though single readings can be large or run the other way. No potency is given beside an inconclusive call; the fits are too rough.
assay: Primary qHTS for delayed death inhibitors of the malarial parasite plastid, 48 hour incubation; conditions: P. falciparum luciferase growth in erythrocytes; series mostly up to 28.7 µM
How it was run: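 Here the parasites carry a stable luciferase gene and grow inside erythrocytes in Albumax-based RPMI medium with compound for one erythrocytic cycle. Activity is scored as loss of luminescent signal.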
Potency is the fitted concentration of half-maximal effect; tags give direction and shape of the fitted curve.

Structure (SMILES)	Potency
CCOC(=O)c1c(C)[nH]c(C(=O)OCC(=O)NCc2ccc(OC)c(OC)c2)c1C	inconclusive [inhibitor, partial curve]
CCn1c(=O)c(C(C)=O)c(O)c2ccccc21	inactive
COc1ccc(/C=C2/C(=O)N(Cc3ccco3)C(=O)N(C(C)C)C2=O)cc1	inactive
CC(C)(C)C(=O)NC(=S)NNC(=O)c1ccc(-c2ccccc2)cc1	inconclusive [inhibitor, partial curve]
Cc1cc(=O)oc2cc(OCC(=O)N/N=C/c3ccccc3[N+](=O)[O-])ccc12	inactive
CCOc1cc(/C=C2/C(=N)N3N=C(C)SC3=NC2=O)ccc1OS(=O)(=O)c1ccc(C)cc1	inactive
CC(C)OCCCNc1nc2c(c(=O)n(Cc3ccccc3F)c(=O)n2C)n1C	inconclusive [inhibitor, partial curve, poor fit]
COc1ccccc1-c1nnc(SCC(=O)O)n1-c1ccccc1	inactive
Cc1ccc(N2CC(C(=O)Nc3nnc(SCCN4CCOCC4)s3)CC2=O)cc1 (stereo not drawn)	inactive
O=C(c1ccccc1)N1CCN(c2ccc(Cl)cc2)CC1	inconclusive [inhibitor, single point]
CC1=NN(c2nc(-c3ccc(C)cc3)cs2)C(=O)C1N=Nc1ccccc1O (stereo not drawn)	inconclusive [inhibitor, partial curve, poor fit]
COc1cc(/C=N/NC(=O)c2cc3ccccc3cc2O)ccc1OCCN1CCCCC1	inconclusive [inhibitor, single point]
CCOc1ccc(C(=O)COC(=O)c2c(-c3ccccc3)noc2C)cc1	inconclusive [inhibitor, single point]
COc1cc(NC(=O)C(C)Oc2ccccc2)c(OC)cc1NC(=O)c1ccccc1 (stereo not drawn)	active: 10.4 µM
CSc1ccc(CN2CCCC(N3CCN(c4ccccc4)CC3)C2)cc1 (stereo not drawn)	inconclusive [inhibitor, partial curve]
CCN(CC)S(=O)(=O)c1cccc(NC(=O)c2cccc(S(=O)(=O)N3CCCC3)c2)c1	active: 9.28 µM
Cc1ccc(C2c3c(oc4ccccc4c3=O)C(=O)N2CCCN2CCOCC2)o1 (stereo not drawn)	inactive
O=C(NCc1ccco1)c1ccc(S(=O)(=O)N2CCCCCC2)cc1	active: 8.28 µM
Cc1c(O)ccc2c(-c3ccccc3)cc(=O)oc12	inconclusive [inhibitor, partial curve, poor fit]
Cc1ccc(O)c(NC(=O)C2CCCN2C(=O)OCc2ccccc2)c1 (stereo not drawn)	inconclusive [inhibitor, single point]
CCC(C)(C)NC(=O)C(c1ccc(OC)cc1)N(C(=O)CCC(=O)Nc1cc(C)on1)c1ccc(OC)cc1OC (stereo not drawn)	inconclusive [inhibitor, partial curve, poor fit]
CCOc1ccc(S(=O)(=O)N2CCN(C(=O)c3ccco3)CC2)cc1	inactive

Structure (SMILES)	Potency
COc1ccccc1OCc1ccc(C(=O)Nc2ccc(Cl)cn2)o1	inactive
Cc1ccc(Cl)cc1Nc1nc(-c2sc(NC(=O)c3ccccc3)nc2C)cs1	active: 2.08 µM
Cc1cccc(NC(=O)/C(C#N)=C/c2ccc[nH]2)c1C	inconclusive [inhibitor, single point]
Cc1nn(-c2ccc(F)cc2)c(Cl)c1/C=C/C(=O)OCC(=O)Nc1c(F)c(F)c(F)c(F)c1F	inactive
COc1ccc(/C=C/C(=O)N(c2ccccn2)C2CCCCC2)cc1OC	inconclusive [inhibitor, partial curve, poor fit]
COc1cc(Cc2nc3ccc(S(=O)(=O)N4CCOCC4)cc3[nH]2)cc(OC)c1OC	inconclusive [inhibitor, single point]
CCOC(=O)C1CCN(c2c(NC3CCCc4ccccc43)c(=O)c2=O)CC1 (stereo not drawn)	inactive
COC(=O)/C=C1\N/C(=N/c2nc(C)c3cc(OC)ccc3n2)NC1=O	inconclusive [inhibitor, partial curve, poor fit]
CCOC(=O)C(Cc1ccccc1)NC(=O)CCc1c(C)nc2nc(C)nn2c1C (stereo not drawn)	inactive
CCOC(=O)[C@H]1[C@H]2COc3cc(OC)ccc3[C@@H]2N2C(=O)c3ccc(C)cc3NC(=O)[C@@]12C	inconclusive [inhibitor, single point]
CCOC(=O)c1c(NC(=O)c2nn(CC)cc2Br)sc(C)c1C	inconclusive [inhibitor, single point]
Cc1cc(=O)n2[nH]c(-c3ccc(F)cc3)cc2n1	inactive
CN(C)CCCNC(=O)c1ccc(-c2cc(O)c3ncccc3c2)cc1	active: 10.4 µM
Cc1ccccc1OCCN1C(=O)NC2(CCCc3ccccc32)C1=O (stereo not drawn)	inconclusive [inhibitor, single point]
Cc1ccc(S(=O)(=O)N(C)C)cc1NC(=O)CSc1ncn[nH]1	inconclusive [inhibitor, partial curve, poor fit]
NC(=O)CC[C@@H]1NC(=O)[C@H](Cc2ccccc2)NC(=O)[C@H](Cc2ccc(O)cc2)NC(=O)[C@@H](N)CSSC[C@@H](C(=O)N2CCC[C@H]2C(=O)N[C@@H](CCCN=C(N)N)C(=O)NCC(N)=O)NC(=O)[C@H](CC(N)=O)NC1=O	inconclusive [inhibitor, single point]
COC(=O)c1[nH]c2ccc(C)cc2c1NC(=O)NC1CCCCC1	inactive
COc1ccc(COC(=O)C2=C(C)NC(=O)NC2c2ccccc2)cc1 (stereo not drawn)	inactive
Cc1cc2ncn(CC(C)C)c2cc1C	inconclusive [inhibitor, partial curve, poor fit]
Cc1cc(C)c(NC(=O)c2cn3c4c(c(N5CCN(C)CC5)c(F)cc4c2=O)OCC3C)c(C)c1 (stereo not drawn)	inconclusive [inhibitor, full curve]
Cc1ccc(N(C)S(=O)(=O)c2cccc(C(=O)Nc3ccc(N4CCOCC4)cc3)c2)cc1	inconclusive [inhibitor, partial curve, poor fit]
